# The whole screen tested about 220,000 compounds, of which about 5,700 (2.6%) were called active. The inconclusive results got no clear call from the source; some entries with a clear call stand among them for comparison. Calls come from the whole dose curve; as a rule, active = well fitted inhibition curve with a large enough effect; inconclusive = small, poorly fitted or top-dose-only effect; inactive = no such curve, though single readings can be large or run the other way. Where the call is inconclusive, the potency comes from a doubtful curve fit.
# Biological target: Lysine-specific demethylase 5B (Homo sapiens) (UniProt Q9UGL1)
# Chain of UniProt Q9UGL1 (Q9UGL1 whole entry, looked up): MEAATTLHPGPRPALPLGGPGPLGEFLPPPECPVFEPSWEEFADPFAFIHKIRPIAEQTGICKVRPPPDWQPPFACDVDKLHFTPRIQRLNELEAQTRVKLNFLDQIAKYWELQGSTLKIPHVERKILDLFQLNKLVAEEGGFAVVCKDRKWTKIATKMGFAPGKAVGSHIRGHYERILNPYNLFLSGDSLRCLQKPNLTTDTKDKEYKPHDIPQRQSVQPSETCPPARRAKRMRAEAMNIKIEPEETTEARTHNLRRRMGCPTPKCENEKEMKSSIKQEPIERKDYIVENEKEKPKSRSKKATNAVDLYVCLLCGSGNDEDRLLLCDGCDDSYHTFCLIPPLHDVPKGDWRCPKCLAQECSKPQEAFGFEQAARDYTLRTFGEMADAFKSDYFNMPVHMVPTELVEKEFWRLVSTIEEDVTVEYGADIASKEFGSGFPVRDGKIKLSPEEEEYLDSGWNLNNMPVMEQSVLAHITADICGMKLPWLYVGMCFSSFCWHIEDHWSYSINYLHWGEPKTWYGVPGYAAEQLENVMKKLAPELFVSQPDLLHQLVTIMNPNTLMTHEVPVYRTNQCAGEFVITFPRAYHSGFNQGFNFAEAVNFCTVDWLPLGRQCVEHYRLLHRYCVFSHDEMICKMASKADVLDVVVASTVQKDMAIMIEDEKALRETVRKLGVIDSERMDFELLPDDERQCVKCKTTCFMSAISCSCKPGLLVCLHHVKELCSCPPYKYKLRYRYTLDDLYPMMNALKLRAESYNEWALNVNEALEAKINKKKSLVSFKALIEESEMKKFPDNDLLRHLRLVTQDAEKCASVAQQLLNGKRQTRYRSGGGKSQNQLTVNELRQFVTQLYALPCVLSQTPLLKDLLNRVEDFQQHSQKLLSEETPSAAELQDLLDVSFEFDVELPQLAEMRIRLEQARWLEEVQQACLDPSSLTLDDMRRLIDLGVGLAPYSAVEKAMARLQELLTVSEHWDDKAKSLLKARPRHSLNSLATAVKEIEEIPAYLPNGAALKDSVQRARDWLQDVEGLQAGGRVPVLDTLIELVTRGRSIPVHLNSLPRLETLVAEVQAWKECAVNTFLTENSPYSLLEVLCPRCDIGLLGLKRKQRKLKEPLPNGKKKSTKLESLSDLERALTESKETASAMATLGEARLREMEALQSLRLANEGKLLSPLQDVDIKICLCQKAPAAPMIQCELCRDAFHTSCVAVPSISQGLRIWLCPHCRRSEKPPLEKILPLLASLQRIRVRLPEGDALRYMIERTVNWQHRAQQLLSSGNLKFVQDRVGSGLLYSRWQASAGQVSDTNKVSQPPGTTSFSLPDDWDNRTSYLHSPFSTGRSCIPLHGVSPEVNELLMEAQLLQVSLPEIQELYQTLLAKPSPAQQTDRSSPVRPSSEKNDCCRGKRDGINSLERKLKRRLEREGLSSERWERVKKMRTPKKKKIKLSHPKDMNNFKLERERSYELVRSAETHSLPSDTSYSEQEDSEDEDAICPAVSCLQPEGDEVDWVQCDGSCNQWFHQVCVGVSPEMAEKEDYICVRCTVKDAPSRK
# Experiment: Primary screen for KDM5B Histone Demethylases FDH-coupled qHTS; note: nearly all actives have a fitted effect of over 70% in size; for activity change, negative = inhibition: 0% is about no effect
# Conditions: FDH-coupled NADH fluorescence (FDH is formaldehyde dehydrogenase); activity change, negative = inhibition: at 57.7 µM (top of the series) unless noted
# Summary of the method: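 Here, H3K4me3 peptide (12.5 µM in substrate mix) is demethylated by KDM5BΔAP, 200 nM final, after 10 min compound exposure. Formaldehyde product is coupled through FDH (0.25 U/mL in mix) to NADH fluorescence; 30-min ΔRFU feeds dose-response curves.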
# Potency is the fitted concentration of half-maximal effect; tags give direction and shape of the fitted curve.
Compound,Potency,"activity change, negative = inhibition"
Cc1noc(C)c1-c1cc2cc(CN(C)C)oc2c(NCCOc2ccccc2)n1,"inconclusive: 28.2 µM [inhibitor, single point]",–
COc1ccc(N(Cc2cccs2)C(=O)COc2cc(C)c(Cl)c(C)c2)cc1,"inconclusive: 12.6 µM [inhibitor, partial curve, poor fit]",–
COc1ccc2c(CNCCc3ccccc3)c(C(=O)O)n(Cc3cccc(F)c3)c2c1,"inconclusive: 22.4 µM [inhibitor, partial curve, poor fit]",–
Cc1cccc(NC(=O)CSc2nc3c(oc4ccccc43)c(=O)n2-c2ccc(F)cc2)c1,"inconclusive: 6.31 µM [inhibitor, full curve, poor fit]",–
CC(=O)c1cnn(-c2cc(Nc3ccc(F)cc3F)nc(C)n2)c1C,–,inactive: 22.9%
CCn1nc(C(=O)OCC(=O)Nc2cc(C(F)(F)F)ccc2Cl)c2ccccc2c1=O,–,inactive: 3%
COc1ccc(-c2noc(-c3cccc(OC)c3OC)n2)cc1,"inconclusive: 28.2 µM [inhibitor, partial curve, poor fit]",–
CCOc1ccc(-c2cn3c(n2)sc2cc(C(=O)NC4CCCc5ccccc54)ccc23)cc1 (configuration not stated),"inconclusive: 15.8 µM [inhibitor, partial curve, poor fit]",–
O=C(CCc1nc2ccccc2s1)N1CCC(Cc2nc(C3CC3)n[nH]2)CC1,"inconclusive: 28.2 µM [inhibitor, partial curve, poor fit]",–
CCc1ccccc1NC(=O)CN1CCN(C(=O)c2oc3ccccc3c2C)CC1,–,inactive: 17.3%
COc1ccc(C(=O)N[C@@H]2CCC[C@@H]2C(=O)NCCCN2CCOCC2)cc1,–,inactive: 18.1%
CC(=O)N1CCN(c2nc(-c3c(C)noc3C)cc3cc(C(C)C)oc23)CC1,–,inactive: -6.33% [at 86.2 µM]
CN(C)c1cc(=O)c2ccnc(-c3ccc(O)c(F)c3)c2o1,"inconclusive: 25.1 µM [inhibitor, single point]",–
O=c1n(-c2ccc([N+](=O)[O-])cc2)nc2n1CCN(Cc1cccc3ccccc13)C2,"inconclusive: 28.2 µM [inhibitor, partial curve, poor fit]",–
O=C1N=C(N2CCOCC2)S/C1=C\c1ccncc1,"inconclusive: 25.1 µM [inhibitor, partial curve, poor fit]",–
CCCCn1c(=O)[nH]c(=O)c2c1nc(CSc1nnnn1-c1ccc(C)cc1C)n2CCC,–,inactive: 1.61%
COCCn1cnc2c1c(=O)n(Cc1ccc(C#N)cc1)c(=O)n2Cc1ccccc1,"inconclusive: 39.8 µM [inhibitor, single point]",–
Cc1ccc(-c2onc(C)c2C)cc1S(=O)(=O)Nc1ccc(Cl)cn1,"inconclusive: 31.6 µM [inhibitor, partial curve, poor fit]",–
COc1ccc(CN2CCNC(=O)C2CC(=O)N(C)CC2CCOCC2)c(F)c1 (configuration not stated),"inconclusive: 14.1 µM [inhibitor, single point]",–
O=C(c1ccc(N2CC3CC(C2)[C@H]2CCCC(=O)N2C3)nc1)N1CC=C(c2ccccc2)CC1 (some centres not stated),"inconclusive: 25.1 µM [inhibitor, single point]",–
Cc1cc(Cn2cc3c4c(cccc42)[C@H](CC(C)C)N[C@H](C(=O)NCCN2CCCC2)C3)no1,"inconclusive: 28.2 µM [inhibitor, single point]",–
CC(Sc1nc(Cl)nc2nc[nH]c12)C(=O)NCCc1ccc(O)cc1 (configuration not stated),–,inactive: -3.72%
COc1ccc(C(=O)Oc2cc(-c3ccc4c(c3)OCO4)cc(=O)c3c(C)oc(C)c23)cc1,"inconclusive: 4.47 µM [inhibitor, partial curve, poor fit]",–

Compound,Potency,"activity change, negative = inhibition"
Fc1ccccc1CN1CCNc2cnc(Nc3ccccc3)cc2C1,"inconclusive: 39.8 µM [inhibitor, partial curve, poor fit]",–
COc1ccc(-c2ccc3nnc(CNC(=O)c4ccccc4F)n3n2)cc1,active: 28.2 µM,–
CCOc1ccc(CNC(=O)c2sc3ncnc(N(C)C4CCCCC4)c3c2C)cc1,"inconclusive: 35.5 µM [inhibitor, partial curve, poor fit]",–
COc1ccc(C(=O)Nc2ccc(NC(=O)C3CC3)nc2)cc1,"inconclusive: 39.8 µM [inhibitor, single point]",–
Cc1cccc(NC(=O)N2CCCCC2c2nc(-c3cnccn3)n[nH]2)c1 (configuration not stated),"inconclusive: 12.6 µM [inhibitor, partial curve]",–
CN1CC(=O)N(C2CCCNC2)Cc2c(NC3CCCCC3O)ncnc21 (configuration not stated),–,inactive: -25.1% [at 115 µM]
CCNc1oc(-c2ccc(COc3ccc(Cl)cc3)o2)nc1C#N,"inconclusive: 39.8 µM [inhibitor, single point]",–
CCCCOc1ccc(CNC(=O)Cc2ccc(NC(=O)N3CCSc4ncccc43)cc2)cc1,"inconclusive: 25.1 µM [inhibitor, partial curve, poor fit]",–
Cn1nc(-c2ccc(OCC(=O)NC3CCCCC3)cc2)c2ccccc2c1=O,–,inactive: 4.65%
O=C(CCN1CCC(c2ccccc2)C1)c1ccco1 (configuration not stated),–,inactive: -9.26%
O=C(Nc1cnc(-c2ccccc2)nc1)c1ccc(F)c(F)c1,"inconclusive: 31.6 µM [inhibitor, single point]",–
Cc1cccc(NS(=O)(=O)c2cc(NC(=O)Cc3n[nH]c(=O)c4ccccc34)ccc2C)c1,–,inactive: 13.1%
O=C1NCc2ccccc2CC12CCCN(CC1CC=CCC1)C2 (configuration not stated),"inconclusive: 126 µM [inhibitor, partial curve]",–
O=C(Nc1ccc(F)cc1F)c1ccc2c(c1)n(Cc1cccc(F)c1)c(=O)c1ccnn12,–,inactive: -0.702%
CC1CCc2c(sc(/N=C/c3ccc(C(C)(C)C)cc3)c2C#N)C1 (configuration not stated),–,inactive: 5.25%
O=C(N1CCN(Cc2ccccc2)CC(O)C1)C1(c2ccccc2F)CC1 (configuration not stated),"inconclusive: 15.8 µM [inhibitor, partial curve, poor fit]",–
CN1CC(=O)N(C2CCNCC2)Cc2c(NCCCc3ccccc3)ncnc21,–,inactive: -28.3% [at 115 µM]
CCCCCn1cc2c(c1-c1ccc(Cl)cc1)c(=O)n(C)c(=O)n2C,"inconclusive: 2 µM [inhibitor, full curve, poor fit]",–
N#Cc1nc(-c2ccc(F)cc2)oc1NCc1ccccc1Cl,"inconclusive: 6.31 µM [inhibitor, full curve, poor fit]",–
O=C(NCc1ccncc1)c1cc(-c2ccccc2Cl)nc2ccccc12,–,inactive: 3.92%
COc1ccc(C(=O)N2CCCC(O)(CN3CCCC3)C2)cc1Cl (configuration not stated),"inconclusive: 11.2 µM [inhibitor, partial curve, poor fit]",–
Cc1cccc(C(=O)Nc2ccc3oc(-c4ccncc4)nc3c2)c1,"inconclusive: 28.2 µM [inhibitor, partial curve, poor fit]",–
Cc1cc(C)n2c(SCC(=O)NCc3ccc4c(c3)OCO4)nnc2n1,"inconclusive: 31.6 µM [inhibitor, partial curve, poor fit]",–

Compound,Potency,"activity change, negative = inhibition"
Cc1[nH]c2ccc(Br)cc2c(=O)c1CN1CCCCCC1,"inconclusive: 14.1 µM [inhibitor, partial curve, poor fit]",–
Cc1ccc2oc(=O)c(S(=O)(=O)c3ccc(F)c(C)c3)cc2c1,"inconclusive: 1.78 µM [inhibitor, partial curve, poor fit]",–
COc1ccc(-c2nc3scc(CCNC(=O)c4cc(OC)cc(OC)c4)n3n2)cc1,–,inconclusive: -62.7% [inhibitor] [at 11.5 µM]
CC(C)N1CCc2nc(SCC(=O)Nc3cccc(F)c3)[nH]c(=O)c2C1,"inconclusive: 22.4 µM [inhibitor, single point]",–
O=C1CN(C(=O)c2cc(=O)[nH]c3ccccc23)CCN1,"inconclusive: 39.8 µM [inhibitor, single point]",–
CSc1ccccc1C(=O)NC(C)c1ccc(F)cc1 (configuration not stated),–,inactive: 9.23%
Cc1ccc(-c2noc(-c3cccn3CC(=O)N3CCc4ccccc43)n2)cc1,–,inactive: 9.45%
CCc1nc(CC(=O)Nc2ccc(C)cc2)sc1C,–,inactive: -23.8%
COCCN1Cc2ccc(Nc3ccc(OC)cc3)nc2C(C)(C(=O)NC2CCC2)C1 (configuration not stated),"inconclusive: 35.5 µM [inhibitor, single point]",–
Cc1nn(C(=O)c2ccccc2)c(C)c1S(=O)(=O)N1CCCCCC1,–,inconclusive: -31% [inhibitor]
CNC(NC(=O)c1ccc(Cl)cc1)C(Cl)(Cl)Cl (configuration not stated),–,inactive: 8.74%
CC(C)(C)c1ccnc(N[C@H]2CO[C@H]3[C@@H]2OC[C@H]3OC(=O)Nc2cccc(C(F)(F)F)c2)n1,–,inactive: -8.49%
O=C(CSc1nc2ccccc2c(=O)n1CCCN1CCOCC1)c1ccc(F)c(F)c1,–,inactive: 13.4%
O=C(C[C@H]1NC(=O)c2ccccc2NC1=O)NCCc1ccc(O)cc1,"inconclusive: 25.1 µM [inhibitor, partial curve, poor fit]",–
CCn1c(=N)c(C(=O)NC2CCCC2)cc2c(=O)n3ccccc3nc21,"inconclusive: 2.82 µM [inhibitor, partial curve, poor fit]",–
COc1cc(-c2ccnc3nc(Cc4cc(F)cc(F)c4)nn23)cc(OC)c1OC,active: 15.8 µM,–
Cc1cc(C)c(CNC(=O)c2cc(-c3ccccc3C)cc3c2OCCN3C)c(=O)[nH]1,active: 39.8 µM,–
O=C1CCC/C(=N/NC(=O)c2ccc(Cl)cc2)C1,"inconclusive: 39.8 µM [inhibitor, single point]",–
Cc1nnc2ccc(NC3CCCC3)nn12,"inconclusive: 31.6 µM [inhibitor, partial curve, poor fit]",–
COc1cc(Cl)ccc1C(=O)NC1CCN(c2cc(C(F)(F)F)nc(C)n2)CC1,"inconclusive: 5.01 µM [inhibitor, partial curve, poor fit]",–
CC(=O)N1CCC(Nc2cc(-c3ccc(Cl)cc3)nc3c(C)noc23)CC1,–,inactive: -21.8% [at 86.2 µM]

# Source: PubChem BioAssay AID1347165 (National Center for Advancing Translational Sciences (NCATS), 2019)
